In PubChem BioAssay AID1645882 (National Center for Advancing Translational Sciences (NCATS), 2021):
The campaign covered roughly 16,000 compounds. About 120 (0.75%) were called active. Another 4% or so got no clear call; they are omitted. The call rests on the fitted dose curve; in most records, active means well fitted inhibition curve with a large enough effect; inconclusive means small, poorly fitted or top-dose-only effect; inactive means no such curve, though single readings can be large or run the other way. The list shows a part of the results. Where a SMILES comes first, the peptide text is derived from it. Bridges are numbered along the chain shown (N, C = ends). [ ]: non-standard residue; d: D form. Orn = NCCC[C@H](N)C(=O)O; Mpa = O=C(O)CCS

target: Rap guanine nucleotide exchange factor 3 (Homo sapiens) (UniProt O95398); assay: Validation qHTS for antagonist of cAMP-regulated guanine nucleotide exchange factor 3 (EPAC1); settings: EPAC1 Rap1B-BODIPY-GDP exchange, fluorescence; series mostly up to 150 µM; activity change, negative = inhibition: at the top concentration;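 further: plate controls were DMSO for no effect and ATA control for full effect; nearly all actives have a fitted effect of over 75% in size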
Chain of UniProt O95398 (O95398 whole entry, looked up): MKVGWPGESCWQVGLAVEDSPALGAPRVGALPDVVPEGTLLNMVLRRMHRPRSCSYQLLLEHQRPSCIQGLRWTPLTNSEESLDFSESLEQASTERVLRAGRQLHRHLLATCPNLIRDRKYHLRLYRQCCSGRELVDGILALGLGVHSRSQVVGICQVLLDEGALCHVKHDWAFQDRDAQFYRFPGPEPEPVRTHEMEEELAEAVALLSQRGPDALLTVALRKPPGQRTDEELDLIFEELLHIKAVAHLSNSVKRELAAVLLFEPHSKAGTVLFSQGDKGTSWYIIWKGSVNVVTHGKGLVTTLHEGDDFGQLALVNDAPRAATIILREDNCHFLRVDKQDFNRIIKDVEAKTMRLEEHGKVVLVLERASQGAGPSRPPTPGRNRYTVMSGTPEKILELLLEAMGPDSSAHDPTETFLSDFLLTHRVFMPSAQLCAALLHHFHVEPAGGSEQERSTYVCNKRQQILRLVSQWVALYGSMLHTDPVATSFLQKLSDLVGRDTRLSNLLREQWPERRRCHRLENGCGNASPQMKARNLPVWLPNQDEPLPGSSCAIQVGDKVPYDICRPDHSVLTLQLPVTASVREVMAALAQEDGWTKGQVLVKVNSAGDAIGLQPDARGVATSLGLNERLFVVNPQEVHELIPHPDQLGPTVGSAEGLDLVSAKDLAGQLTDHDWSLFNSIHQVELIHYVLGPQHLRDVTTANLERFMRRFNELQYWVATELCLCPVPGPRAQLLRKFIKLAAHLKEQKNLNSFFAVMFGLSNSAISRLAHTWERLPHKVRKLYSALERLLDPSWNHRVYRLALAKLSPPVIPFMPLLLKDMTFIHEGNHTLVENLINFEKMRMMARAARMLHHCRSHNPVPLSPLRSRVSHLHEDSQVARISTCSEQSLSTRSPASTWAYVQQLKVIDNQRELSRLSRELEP
Outline: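 Nucleotide exchange followed as fluorescence loss when BODIPY-GDP leaves Rap1B (480 nm excitation, 540 nm emission), read at 5 min intervals over 30 min. Reaction: 100 nM EPAC1, 250 nM RAP1B-BODIPY-GDP, 50 uM GDP; ATA and DMSO define normalization.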

Activity change, negative = inhibition, inactive:
CCN1CCc2nc(N)oc2CC1
O=C(c1cccc(F)c1)N1CCC2(CCN(Cc3ccccc3)CC2)CC1 8.23%
CCCCCCCCCCCCCC[N+](C)(C)C 19.7%
C[N+](C)(C)CCOC(=O)CCC(=O)OCC[N+](C)(C)C
C=CC1=C(C(=O)O)N2C(=O)[C@@H](NC(=O)/C(=N\O)c3csc(N)n3)[C@H]2SC1 (stereo in doubt)
Cc1ccsc1/C=C/C1=NCCCN1C
CCCCCCCCCCCCCCCCOP(=O)([O-])OCC[N+](C)(C)C 10.3%
Cc1cc(NS(=O)(=O)c2ccc(N)cc2)nc(C)n1 9.33%
CN1CCN(c2ncc3nc(-c4ccc(Cl)cc4)c(=O)n(Cc4cccs4)c3n2)CC1 13.6%
CC(Cc1ccc(O)c(O)c1)(NN)C(=O)O (stereo not drawn) -5.31%
O=c1cnc2cnc(Nc3ccccc3)nc2n1Cc1cccs1 7.35%
CCCn1c(=O)[nH]c2nc(-c3ccc(S(=O)(=O)O)cc3)[nH]c2c1=O -11.9%
CCCCCCCCCC(=O)NC(CN1CCOCC1)[C@H](O)c1ccccc1 (stereo partly drawn) -6.76% [at 75.8 µM]
Cc1ccc(SC[C@H](C)CN2CC[C@H](C)CCC2=O)cc1 -20.5%
COc1ccccc1CN1CC[C@@]2(CCCN(S(=O)(=O)c3ccccc3)C2)C1 14.1%
COc1ccc(-c2cn(CCc3c[nH]c4ccccc34)nn2)cc1 -18%
CCc1noc(C)c1C(=O)N1CCOc2ccc(CN3CCCC(C(=O)c4cccnc4)C3)cc2C1 (stereo not drawn) 1.42%
COc1ccccc1N1CCN(CCCCN2C(=O)CCC2=O)CC1
C[N+]1(CC(=O)c2ccc(F)cc2)CCc2ccccc2C1 (stereo not drawn) 20.1%
CC(=O)N1CCC[C@H]1C(=O)NCC1Cc2cc(F)cc(-c3ccc(F)c(C)c3)c2O1 (stereo partly drawn) 16.7%
COc1cc(N)c(Cl)cc1C(=O)N[C@H]1CCN(CCCOc2ccc(F)cc2)C[C@@H]1OC -4.5%
CN(C)CCCN1c2ccccc2Sc2ccc(Cl)cc21
CCOC(=O)c1c(C)cc(O)cc1O 6.65%
CCCC1(C)C(C#N)(C#N)C1(C#N)C#N -3.18% [at 75.8 µM]
O=C(c1ccco1)N1CCC2(CC1)CN(C(c1ccccc1)c1ccccc1)C2 9.38%
O=C(NCCc1nnc2n1CCN(Cc1ccc(F)cc1)CC2)c1ccc(F)cc1 11.9%
CCCCCCCCCCCCCCCCOC[C@H](COP(=O)([O-])OCC[N+](C)(C)C)OC(=O)NC -10.4% [at 15.3 µM]
CCOc1ccc(C[C@H]2NC(=O)CCSSC[C@@H](C(=O)N3CCC[C@H]3C(=O)N[C@@H](CCCN)C(=O)NCC(N)=O)NC(=O)[C@H](CC(N)=O)NC(=O)[C@H]([C@@H](C)O)NC(=O)[C@H]([C@@H](C)CC)NC2=O)cc1 ([Mpa][dY](Et)ITNCP[Orn]G-NH2; disulfide 1-6) 7.37%
